Test results published in the supplement of paper PMC10126150.
Values marked as one replicate rest on one cluster of the flow cell; about a third of the high ones do not repeat.

Tested on: ATP
Assay: switch fluorescence ratio, 500 uM ATP over buffer (Cy3 cluster intensity, sum of 5 cycles each) (fold (ratio)); higher = stronger signal-on switching upon ATP binding; sequences stand for … in TCGTCGGCAGCGTCAGATGTGTATAAGAGACAGTTTTTTTTTTTTTTTTTTTTTTTTT…TC
Conditions: aptamer strand: ATP DNA aptamer (quencher-CACCTGGGGGAGTATTGCGGAGGAAGG + anchor), 100 nM annealed; ATP concentration: 500 uM; one replicate
How it was run: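 After annealing to 100 nM quencher-labelled ATP aptamer, Cy3-labelled switching-strand clusters on a modified Illumina MiSeq flow-cell were imaged in selection buffer. A second image followed after 15 min with 500 uM ATP at 22 °C, and five such buffer/ATP cycles were done, each separated by NaOH stripping and re-annealing. The fluorescence ratio, averaged per switch-domain sequence, is summed target-cycle over summed buffer-cycle Cy3 intensity per cluster, with clusters outside 100-1000 RFU excluded.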
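Note: ATP exposure 15 min at 22 °C before imaging.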

Sequence	switch fluorescence ratio
TTTATGTCTT	0.969
GTGAGTCTGG	1.01
ACTGCGTCAA	2.42
ATCCCAAAGA	0.978
TTCTGTAAAT	1.19
TATAAGTTGC	1
CGGTAGAAGC	1.02
GCGTCTAAGT	1.02
AAATAGCGTT	1.03
GAAGGGCTTG	0.991
GTTCGAGCAT	1.04
CAAACGATTA	1.06
ATGTAGAAT	1.02
TCTGATTCGG	0.978
TACTCTACCG	1.27
AACGGAGTAC	1.16
TTCATAATCT	1.01
TCGTTCTTAT	0.97
AGCAGCTACT	1.33
CGGGTACAT	0.995
AAGTACCCCC	1.49
ACTTCTAGCT	0.999
ATACCCGACG	1.34
AGTGTTAGG	1.01
ACTGGTTGGC	0.971

Sequence	switch fluorescence ratio
ATGACCGGTG	1.04
TAACGACGAT	1.05
TGGACTGGTG	1.03
GAAATGGTG	1.02
AGTAAGAGAC	1.03
ACAGGTACCA	1.07
AATGGAGAAA	0.992
ACCTCCGAGA	4.75
TTAGTGATTG	0.981
GAGACGAGGT	1.03
AAACCCGTCA	0.991
GTCAACTTAG	1.03
ACCATCGCTT	1.09
AGTTTTCGCA	1
CTGTTTCCG	0.966
CGATAGCCGG	1.01
TCCCAGTAGT	0.982
TTTATGTGAA	1.02
GAAAGTTTGA	1.07
CTGGGTAGCG	0.982
AATAGTACAG	1.06
TTTCGGTAC	1.11
GCCGAGAGAC	1.5
TTCGGATCGG	0.98
ATAGGTCAGA	0.997

Sequence	switch fluorescence ratio
AATGGTCTGA	1.04
AAGGTATCAC	1.01
TGGGCATGCA	0.931
CTAGCGGATG	0.974
AAAATGGAAC	1.03
GACCTTAGTG	1.03
GCGAGTACAA	1.06
CGGGAAAAAC	1.06
AGGGACCTTC	1.19
ACGTACGGCG	1.19
TCACCACTGC	1.47
TAGGGCGCTG	0.986
TATGGCGTGA	1.01
GGTAGACGGC	1.08
ATTCAAGTAA	1.07
AGGCCGACTA	0.962
TCAAGAGGAA	0.957
TATGATCGTG	1
TGATTTTCAC	1.52
GGTGATCTTG	1.05
TGCGAGCGGC	1.04
TGAGGGTGCC	1.04
TGGGTAATGA	1.01
CGATTCCATC	0.975
GTCAGGGGGC	1.11

Sequence	switch fluorescence ratio
TATCCATATT	1.01
CTGGGATTTC	0.98
CGTATAAAGA	0.962
CACGTGGGTT	1.03
GGGTACCCGG	0.99
ATAAAGGTGC	1.23
GTCGCCCTTC	1.02
TCATGACAAA	0.984
TTACGTGGCC	1.01
GTCACTGTGA	1.04
CGGGGCGCTG	1.02
TGAGAGGTGT	1.04
AGAAGCTTAA	1.02
GTTTGATCCT	0.994
GCGACCCGAA	1.1
TAAGTAATCA	1.02
GCATTAGGAG	1.05
AGGCCGCTAG	1.02
ACTACCTGGG	1.32
GGTGACCTTT	0.946
CTGGGACGGC	1.09
GCCGTAACCG	1
CTGATGGTGC	1.44
TATCGAAAGC	0.964
GATGTACGT	1.02

Sequence	switch fluorescence ratio
CGATTCAGAA	1.05
TGCATTTCGA	0.977
TGAGGCCTA	1.09
CGAATCCGTC	1.07
TTAAGTACTG	1.4
AAGAGGCATT	0.945
TTTTTCCATG	0.977
TAGAATAGAT	0.999
GCCAAAAACG	1.04
CATGCACGCG	1
CCCGACGAGA	3.55
TATCAGCAAT	2.73
GACAGTACCT	1.49
TGACGTATGT	1.01
GAATGGCGCT	0.942
CCCACCAGG	4.14
GTGTATTTTC	0.985
CGTCATATAA	1.07
GATCCGCCGG	1.12
CATGATAGTG	1.03
TTTGATTATC	0.972
TTCTTGACCG	0.994
ATTTGTAGCC	1
GGTTCACTAC	1.05
CTTATTTAAT	0.999

Sequence	switch fluorescence ratio
AAAAAATCCG	1.05
GTTTTATAGT	1
GTAGTGTAGC	1.05
GGATTCCTTT	0.994
CCGTGTGAGG	0.979
TACCGGGCTG	1.01
AGGGCGGAG	0.973
GGTTGGATCA	1.06
AAACTATCGG	1.02
GTTGTAGTGC	1.14
TTACGGGTCA	1.01
GTTAGCCCGT	0.997
CGAGCGCAGA	1.12
AATCTGCGGT	1.04
TTGCCCATTT	1.03
TTCATACATA	1.12
AATTTTGCCT	0.998
GCAGCGCGAT	1.09
CACCTGCCAC	1.37
ATCAGCGCTG	1.01
AGCCTGGACG	1.01
CAGATCATGT	0.969
AAAGTCGTGG	0.991
TTTAATCCGC	1.52
ACGGGCGCGC	0.977

Sequence	switch fluorescence ratio
ATAAGTCTGC	0.964
GTCCTTGGGA	1
TAATTAAGTT	0.989
AAATGGGGCA	0.98
TGCCTTTAGG	0.975
TTCGACTAAG	1.01
CATCGTATA	0.977
GCATGACCAT	0.981
CTCATTTATA	0.994
AGAGCTCGAT	1.01
CTCCAGCGTA	1.77
GCACCAAGCT	1.04
GTTATCAGTG	0.964
TTTTCTAAGC	1.03
GAGGGCTGAA	0.98
GTCTAACATG	1
TTACTGGTTC	0.986
CTGAATGTTC	0.996
CGACTTATTC	1.02
TAGGAGTCAA	0.999
AGGGTGCTAG	0.967
GCACTCCTCT	1.07
CGCCTGGGGG	1.12
ATCTGTTCGC	1.01
AAACCTAGTC	1.15

Sequence	switch fluorescence ratio
GAATTCGTCT	0.989
CAATCTGCAG	1.07
TTCGGTCGA	1.03
CTCATTAAGT	1.02
GGTTTATTTA	0.988
CTGGAACCCA	1
TTCGCCCGGC	1.2
TCTATATTCG	1
GACTTCGGTT	1
CTGGTGCGAA	1.06
AGGCTGTTAT	1.03
GCGCGACGAT	1.06
AAGATACAAG	1.06
AACGTCAACG	1.08
GGATAACAG	0.986
ACGTATTCGC	1.02
GGTCTGGAA	1.04
GTGGGAGTGG	1.01
GTTTGAGTGG	0.975
CATTGGATCG	1
AGGGGCATCT	0.995
AGGGACTGAA	1.03
GAAGCGCGA	1.09
TCGTGATTAT	1.04
GCTGGTCTCG	1.02
